{"source": "paper PMC4336329", "about": "(PLoS ONE, 2015)", "note": "Among all 310,000 compounds or so, about 2,200 (0.71%) showed an effect of 50% or more. The effect is printed as a negative number. Some of the results follow."}
{"target": "human ether-à-go-go-related gene (hERG) potassium channel (human, UniProt Q12809)", "sequence (Q12809 whole entry, looked up)": "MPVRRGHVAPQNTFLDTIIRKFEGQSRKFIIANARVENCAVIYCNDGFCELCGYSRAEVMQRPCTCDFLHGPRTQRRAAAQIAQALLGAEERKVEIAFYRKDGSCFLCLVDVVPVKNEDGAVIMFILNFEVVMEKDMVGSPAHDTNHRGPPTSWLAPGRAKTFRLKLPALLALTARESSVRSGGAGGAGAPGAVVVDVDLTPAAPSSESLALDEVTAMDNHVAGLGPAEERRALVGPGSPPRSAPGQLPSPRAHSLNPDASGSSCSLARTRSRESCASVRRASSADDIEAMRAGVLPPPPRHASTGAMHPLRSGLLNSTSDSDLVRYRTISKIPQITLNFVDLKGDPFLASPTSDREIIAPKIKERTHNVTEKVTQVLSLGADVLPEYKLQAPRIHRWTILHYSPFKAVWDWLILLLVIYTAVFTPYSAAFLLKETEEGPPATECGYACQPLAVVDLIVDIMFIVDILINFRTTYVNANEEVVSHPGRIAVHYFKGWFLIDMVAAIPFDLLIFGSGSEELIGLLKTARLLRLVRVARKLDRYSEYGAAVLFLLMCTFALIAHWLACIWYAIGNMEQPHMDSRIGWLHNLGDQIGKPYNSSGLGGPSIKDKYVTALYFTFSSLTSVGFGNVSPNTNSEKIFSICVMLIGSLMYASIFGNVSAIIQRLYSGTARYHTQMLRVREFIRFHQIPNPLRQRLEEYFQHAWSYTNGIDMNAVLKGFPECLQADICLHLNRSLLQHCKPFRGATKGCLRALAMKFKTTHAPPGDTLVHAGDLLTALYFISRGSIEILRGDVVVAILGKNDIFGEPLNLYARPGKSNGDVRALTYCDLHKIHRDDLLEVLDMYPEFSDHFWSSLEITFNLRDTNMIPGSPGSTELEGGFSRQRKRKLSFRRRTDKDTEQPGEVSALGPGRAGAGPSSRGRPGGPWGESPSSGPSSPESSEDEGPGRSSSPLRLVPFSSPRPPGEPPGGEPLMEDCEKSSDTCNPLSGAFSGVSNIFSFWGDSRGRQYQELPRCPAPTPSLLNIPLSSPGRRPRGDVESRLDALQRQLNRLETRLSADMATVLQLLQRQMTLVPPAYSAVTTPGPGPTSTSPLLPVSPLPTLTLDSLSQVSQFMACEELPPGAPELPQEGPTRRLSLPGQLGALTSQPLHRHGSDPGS", "assay": "primary screen, population patch clamp on CHO cells stably expressing hERG", "units": {"hERG current change (%, negative = inhibition) at 1uM": "%"}}
{"smiles": "CCOc1cc2c(cc1OCC)-n1cccc1C(c1ccc(C(C)C)cc1)NC2.Cl", "note": "(stereo not drawn)", "hERG current change (%, negative = inhibition) at 1uM": 18.6}
{"smiles": "COc1ccnc(NCc2cccnc2)c1C#N", "hERG current change (%, negative = inhibition) at 1uM": 12.3}
{"smiles": "CN1C(=O)C(CC(=O)Nc2ccccc2F)N(NC(=O)c2ccc(Br)cc2)C1=S", "note": "(stereo not drawn)", "hERG current change (%, negative = inhibition) at 1uM": 12.4}
{"smiles": "CCCCn1c(N)c(Sc2ccc(C)cc2)c(=O)[nH]c1=O", "hERG current change (%, negative = inhibition) at 1uM": 8.7}
{"smiles": "CCOc1ccc(N2CC(C(=O)Nc3ccc(N4CCOCC4)cc3)CC2=O)cc1", "note": "(stereo not drawn)", "hERG current change (%, negative = inhibition) at 1uM": 10.3}
{"smiles": "CC(C)(C)c1ccc(-c2nc(O)c(CC(=O)O)s2)cc1", "hERG current change (%, negative = inhibition) at 1uM": 7.54}
{"smiles": "CC(C)COc1ccc(/C=C2/Sc3ccccc3C2=O)cc1", "hERG current change (%, negative = inhibition) at 1uM": 18.3}
{"smiles": "CCN(CC)C(=O)c1cc2c(=O)c3cc(Cl)ccc3oc2nc1C", "hERG current change (%, negative = inhibition) at 1uM": -15}
{"smiles": "Cc1ccc(C(=O)NNC(=O)OC(C)(C)C)c(Cl)c1", "hERG current change (%, negative = inhibition) at 1uM": 1.71}
{"smiles": "COc1ccc(/C=N/NC(=O)c2ccccc2OC)cc1COc1ccc(C)cc1", "hERG current change (%, negative = inhibition) at 1uM": 14.5}
{"smiles": "CC(C)Cc1ccc([C@H](C)C(=O)O)cc1", "hERG current change (%, negative = inhibition) at 1uM": 8.42}
{"smiles": "Cc1cccc(N/C=C/C(=O)c2cccs2)c1C", "hERG current change (%, negative = inhibition) at 1uM": 14.2}
{"smiles": "CCN(CC)c1ccc(/C=N/NC(=O)c2ccc3nc[nH]c3c2)cc1", "hERG current change (%, negative = inhibition) at 1uM": 6.09}
{"smiles": "COc1ccc(N2CCN(CC(=O)Nc3ccccc3SC)CC2)cc1", "hERG current change (%, negative = inhibition) at 1uM": 8.12}
{"smiles": "COc1ccc(CNC(=O)CCn2ccc3cc(S(=O)(=O)N4CCCC4)ccc32)cc1", "hERG current change (%, negative = inhibition) at 1uM": 9.44}
{"smiles": "N#C/C(=N\\Nc1ccccc1)C(=N)N1CCCCC1", "hERG current change (%, negative = inhibition) at 1uM": -0.163}
{"smiles": "CCC(=O)c1ccc(OCC(=O)N2CCN(c3ncccn3)CC2)cc1", "hERG current change (%, negative = inhibition) at 1uM": 7.61}
{"smiles": "CC(=O)N(c1ccccc1C)S(=O)(=O)c1ccc(Cl)cc1", "hERG current change (%, negative = inhibition) at 1uM": 10}
{"smiles": "COc1cccc(N(CC(=O)NCC2CCCO2)C(=O)CNS(=O)(=O)c2ccccc2)c1", "note": "(stereo not drawn)", "hERG current change (%, negative = inhibition) at 1uM": 17.7}
{"smiles": "O=C(NC1CCCCC1)C(c1ccc(O)cc1)N(CC1CCCO1)C(=O)C1COc2ccccc2O1", "note": "(stereo not drawn)", "hERG current change (%, negative = inhibition) at 1uM": 7.86}
{"smiles": "Cc1ccc(C2(C(F)(F)F)NC(=O)N3N=C4CCCCCN4C3=C2C#N)cc1", "note": "(stereo not drawn)", "hERG current change (%, negative = inhibition) at 1uM": 1.63}
{"smiles": "C/C=C(/C)C(=O)O[C@@H]1c2c(ccc3ccc(=O)oc23)OC(C)(C)[C@@H]1OC(=O)/C(C)=C\\C", "hERG current change (%, negative = inhibition) at 1uM": 9.46}
{"smiles": "COc1cc(O)cc(O)c1C(=O)/C=C/c1ccccc1", "hERG current change (%, negative = inhibition) at 1uM": 12.6}
{"smiles": "Cc1ccc(S(=O)(=O)N2CCSC2=Nc2ccccc2)cc1", "hERG current change (%, negative = inhibition) at 1uM": 10.9}
{"smiles": "CCCOc1cccc(C(=O)Nc2cccnc2)c1", "hERG current change (%, negative = inhibition) at 1uM": -4.26}
{"smiles": "CCCC(=O)N1CCN(C2=NS(=O)(=O)c3ccccc32)CC1", "hERG current change (%, negative = inhibition) at 1uM": 6.51}
{"smiles": "Cc1ccccc1C(=O)c1cccn1CC(=O)NC1CCCC(C)C1C", "note": "(stereo not drawn)", "hERG current change (%, negative = inhibition) at 1uM": 6.18}
{"smiles": "O=C(NCCc1ccccn1)C(F)(F)C(F)(F)C(F)(F)C(F)(F)C(F)(F)C(F)F", "hERG current change (%, negative = inhibition) at 1uM": -2.94}
{"smiles": "COc1ccc(C(=O)/C(=C/O)N=Nc2ccc(F)cc2)cc1", "hERG current change (%, negative = inhibition) at 1uM": 5.01}
{"smiles": "Cc1cccc(CCNC(=O)CN(C)S(=O)(=O)c2ccc3c(c2)c(=O)n(C)c(=O)n3C)c1", "hERG current change (%, negative = inhibition) at 1uM": 4.52}
{"smiles": "CCN(CC)C(=O)CSc1nnc(COc2ccccc2)n1N", "hERG current change (%, negative = inhibition) at 1uM": 1.64}
{"smiles": "Cc1c(N(C)C(=O)c2ccccc2F)c(=O)n(-c2ccccc2)n1C", "hERG current change (%, negative = inhibition) at 1uM": 14.3}
{"smiles": "Cc1nc2c(cc1N)nc(C)n2Cc1ccccc1", "hERG current change (%, negative = inhibition) at 1uM": 11.8}
{"smiles": "O=C(NCCCc1ccccc1)c1ccc(CS(=O)Cc2ccc(Cl)cc2)o1", "note": "(stereo not drawn)", "hERG current change (%, negative = inhibition) at 1uM": -40.9}
{"smiles": "CC(C)Cn1nc(C(=O)OCC(=O)NCC(F)(F)F)c2ccccc2c1=O", "hERG current change (%, negative = inhibition) at 1uM": 6.89}
{"smiles": "COc1cccc(CCc2nnc(CCC(=O)NCCc3cccc(C)n3)o2)c1", "hERG current change (%, negative = inhibition) at 1uM": 19.7}
{"smiles": "O=C(Nc1ccc(S(=O)(=O)N2CCCCC2)cc1)C1CC1", "hERG current change (%, negative = inhibition) at 1uM": 10.4}
{"smiles": "Cc1c(NC(=O)C(C)OC(=O)c2cccs2)c(=O)n(-c2ccccc2)n1C", "note": "(stereo not drawn)", "hERG current change (%, negative = inhibition) at 1uM": 5.84}
{"smiles": "O=C(CNC(=O)c1cccc(F)c1)OCC(=O)N1CCCCC1", "hERG current change (%, negative = inhibition) at 1uM": 3.21}
{"smiles": "COC(=O)Nc1nc(C)c(C(=O)N(C)C)s1", "hERG current change (%, negative = inhibition) at 1uM": 11.2}
{"smiles": "CN(C)S(=O)(=O)c1ccc(C(=O)OCn2nnc3ccccc3c2=O)cc1", "hERG current change (%, negative = inhibition) at 1uM": 0.324}
{"smiles": "C=CCn1c(SCC(=O)N(C)C)nc2cc(C(=O)O)ccc2c1=O", "hERG current change (%, negative = inhibition) at 1uM": 27.8}
{"smiles": "Cc1ccc(Sc2c([N+](=O)[O-])c(C)nn2C)cc1", "hERG current change (%, negative = inhibition) at 1uM": 13.8}
{"smiles": "CCn1c(SCC(=O)NCCc2ccccc2)nnc1C(C)C", "hERG current change (%, negative = inhibition) at 1uM": 12}
{"smiles": "O=C1CSC(=S)N1c1cccnc1", "hERG current change (%, negative = inhibition) at 1uM": 3.32}
{"smiles": "COc1cccc(-c2cc(C(F)(F)F)n3ncc(C(=O)N4CCc5ccccc5C4)c3n2)c1", "hERG current change (%, negative = inhibition) at 1uM": 8.03}
{"smiles": "Oc1c(C=NCc2ccc(F)cc2)[nH]c2ccc(Br)c(Cl)c12", "hERG current change (%, negative = inhibition) at 1uM": 5.29}
{"smiles": "COc1ccc(CC(=O)Nc2cc(C)ccn2)cc1OC", "hERG current change (%, negative = inhibition) at 1uM": 14.2}
{"smiles": "CCCCCCc1ccc(OCC(=O)O)cc1OCC(=O)O", "hERG current change (%, negative = inhibition) at 1uM": 7.98}
{"smiles": "COc1ccc(-c2nc(SC)n(S(=O)(=O)c3ccccc3)n2)cc1", "hERG current change (%, negative = inhibition) at 1uM": 5.99}
{"smiles": "Cc1ccc2nc(SCC(=O)Nc3ccc(C(N)=O)cc3)[nH]c2c1", "hERG current change (%, negative = inhibition) at 1uM": 14}
{"smiles": "COc1ccc2oc(C(=O)OCC(=O)N3CCN(c4ccccc4)CC3)c(C)c2c1", "hERG current change (%, negative = inhibition) at 1uM": 18.2}
{"smiles": "CC(NC(=O)c1ccc(Br)o1)C1CCCO1", "note": "(stereo not drawn)", "hERG current change (%, negative = inhibition) at 1uM": 13.3}
{"smiles": "C/C(Cl)=C/CSc1nn2c(=O)c3ccccc3nc2s1", "hERG current change (%, negative = inhibition) at 1uM": 2.8}
{"smiles": "Br.Clc1ccccc1CNCC1CCCO1", "note": "(stereo not drawn)", "hERG current change (%, negative = inhibition) at 1uM": 5.32}
{"smiles": "S=c1nccc(-c2ccc(Cl)cc2)[nH]1", "hERG current change (%, negative = inhibition) at 1uM": 14}
{"smiles": "COC(=O)N/N=C(\\C)c1cccs1", "hERG current change (%, negative = inhibition) at 1uM": 17.7}
{"smiles": "CCCCN1C(=S)NC[C@@H]1Cc1ccc(O)cc1", "hERG current change (%, negative = inhibition) at 1uM": 9.11}
{"smiles": "Cc1cccc(C(=O)NCc2nnc(SCC(=O)NC3=NCCS3)n2C)c1", "hERG current change (%, negative = inhibition) at 1uM": 14.2}
{"smiles": "CC(Sc1nccn1C)C(=O)c1ccc(Br)cc1", "note": "(stereo not drawn)", "hERG current change (%, negative = inhibition) at 1uM": 13.7}
